# Assay results reported in the supplement of paper PMC3334620.
# In all, about 33,000 sequences were measured (“E-score (-0.5 to 0.5)”: median about -0.054, highest 2% from about 0.39 on). The list shows a part of the results.
# Molecular target: Ylr278c (UniProt Q05854)
# Assay: PBM E-score (8-mer binding enrichment) (E-score (-0.5 to 0.5)); higher = stronger / more preferred TF binding; most listed sequences are background and not binding sites
# Conditions: protein concentration: 200 nM; construct: GST-DNA-binding domain
# In short: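 PURExpress in vitro transcription/translation supplied GST-tagged yeast transcription factors, either full-length or DNA-binding domain. Applied at about 100-200 nM to universal all-10-mer Agilent arrays double-stranded by primer extension, the bound protein was detected with fluorescent anti-GST. E-scores, modified Wilcoxon-Mann-Whitney statistics, were given by the Universal PBM Analysis Suite to ungapped eight-base words pooled with their reverse complements after masliner normalisation.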
row,Sequence,PBM E-score
1,CAATCATC,-0.00262
2,AGTTCTGG,-0.152
3,ACCGCCAT,0.0274
4,AAGCCCAC,-0.144
5,CTTCGCCA,-0.0258
6,AGTTCACG,-0.188
7,CCTGGCGC,0.0819
8,CCGACAAA,0.296
9,CCGAGAAG,0.226
10,CAACTCCC,0.154
11,CGCTTCGC,0.135
12,AAGTTCAC,-0.0335
13,CGGTGAGC,0.171
14,ATAGTGTC,-0.139
15,CGCAAGTA,-0.0314
16,AACCGAAC,-0.0183
17,CCGCTCGA,0.143
18,CCTGTCTA,-0.128
19,AATGGACA,-0.215
20,TGTTATAA,0.0402
21,GCGGAGAA,0.436
22,ATTCACGG,0.248
23,GTTAAGAA,-0.0964
24,AGCTAGTG,-0.312
25,CCTCGTGA,-0.12

row,Sequence,PBM E-score
1,AACCCAAT,-0.245
2,CAACCCAC,-0.00925
3,CCCTGTAC,-0.228
4,ATTTCTTG,0.0359
5,GACGCAAC,0.0987
6,AAGTCCAT,-0.0494
7,ACAAGGTC,-0.128
8,ATCCATCC,0.223
9,GTAAGCCA,-0.214
10,CATCATGC,-0.207
11,AAGCGGAA,0.326
12,GCACTTCA,0.102
13,TCTGAAAA,-0.122
14,CATATAAA,-0.147
15,GAGCCACC,-0.0391
16,ATGCAAAA,-0.0936
17,CATCACCG,0.0956
18,CGGATCTC,0.365
19,CCTCGAAC,-0.204
20,CTCTCGGA,0.405
21,CATTATGC,-0.0323
22,CCCATATA,-0.024
23,GGGACACA,-0.0511
24,AGTGAAAC,-0.0278
25,CCCATCCG,0.0827

row,Sequence,PBM E-score
1,ATATTCTC,0.00864
2,CATATGAC,-0.168
3,GAGTTACA,0.111
4,AAGATACT,0.0493
5,AATGTGGC,-0.019
6,ACCCTCAG,-0.126
7,GCGAGCGA,0.0207
8,ATCGCATG,-0.0936
9,ATAATGTG,-0.159
10,CGTATAAG,-0.0319
11,ATCTGACG,-0.134
12,ACGACAGC,-0.241
13,AATAGATT,-0.0366
14,CGATTAAG,0.0117
15,CACCCTAG,-0.219
16,ATCCAGAC,0.085
17,GCACCAAA,-0.0887
18,CTTAGTAC,-0.159
19,AGAGGTGA,-0.22
20,AGTTAATC,-0.0457
21,AGTCAACG,-0.258
22,ATGGAACG,-0.0457
23,GAAAACAC,0.204
24,AGTTGCGG,0.242
25,ACGCCCTA,-0.0143

row,Sequence,PBM E-score
1,AGCCGTGA,0.0633
2,ACAGTTAA,-0.065
3,CAACGAAA,-0.0107
4,ACGGGAGG,0.0879
5,GTTAATCA,-0.0638
6,ATTAGGAC,-0.212
7,TCTTACAA,-0.172
8,GTGTTCCA,-0.0694
9,CCAAGTTC,0.0338
10,CGGCCCTA,0.169
11,GCACCAGC,-0.144
12,GCCGCTCA,0.103
13,GTAAACTA,0.0138
14,AACACTTC,-0.105
15,ACCACCCT,-0.22
16,ATCGGCAC,0.252
17,CTATGGGC,-0.181
18,CCCCGCGC,0.317
19,GCCCGGGA,0.341
20,CACGTATG,-0.177
21,CGGAATCA,0.39
22,GGCCTTCA,0.0658
23,AAATGGAG,0.0932
24,CGTACCGC,0.0934
25,ACACGGGA,0.129

row,Sequence,PBM E-score
1,AACCGACA,-0.0194
2,CAATTTGG,-0.0927
3,GCTTGTCA,0.00249
4,CTCCCACA,0.00574
5,AGCCTACC,-0.0995
6,CGTGTCGA,-0.133
7,GCAATAAA,0.0137
8,AATATACG,-0.111
9,CATAACTC,-0.0582
10,CAGGCAAC,-0.22
11,ATAAATTC,-0.0248
12,AACAAGGT,-0.0398
13,AAGTCTAC,-0.137
14,CCGCACTC,0.229
15,CAGGCTAC,-0.191
16,CGCATATC,0.0684
17,CTGGTCAC,-0.279
18,GCCCCAGA,0.0596
19,CCACACCC,0.0395
20,CATGATCG,-0.0501
21,TACTCCCA,-0.0458
22,ACCGGACA,0.401
23,CGGCTAGA,0.0973
24,CAAAGCCC,0.15
25,AGGAGTTG,0.00225

row,Sequence,PBM E-score
1,ACGTGGAC,-0.0384
2,AAGCATAT,-0.014
3,AACCTTCA,-0.245
4,AATTAGCT,0.0507
5,GCCCCCCC,-0.289
6,CTGCGGAA,0.214
7,AGCGCGAA,0.0776
8,GATATTCA,0.0432
9,TCCTTGAA,-0.227
10,AGGGTTCG,-0.0349
11,TATTGACA,-0.141
12,ACGGATAT,0.305
13,CCAGGTCC,0.0683
14,CTCTCACC,-0.104
15,ACAGCCCT,-0.133
16,CGACATCG,0.0791
17,GTTATCTA,-0.0157
18,GACCAGCA,-0.00964
19,AACACCGT,0.178
20,CCCTCTTA,-0.162
21,AAGGCTTG,-0.229
22,CAACGTAC,-0.339
23,CGATAGCG,0.187
24,CCAGCGGA,0.342
25,ACTAAATA,-0.0557

row,Sequence,PBM E-score
1,ACGCATGC,-0.0181
2,CTATAATA,-0.0183
3,AGGGGTAT,-0.0462
4,CAAGCATA,-0.136
5,GTCGCGGA,0.294
6,AACATAGC,-0.0617
7,CACATCCA,-0.178
8,GCATAGGC,-0.265
9,ACAACACT,-0.052
10,CCAAATAC,-0.107
11,ACGCCGTA,0.0546
12,GGATGTTA,0.145
13,CTCGGAAA,0.374
14,CTTGCAGA,-0.155
15,ATACAGAA,0.0316
16,CATGGCGG,0.145
17,CCGTGGCG,0.209
18,CCTTAAAG,-0.182
19,AGCTGGTG,-0.109
20,CATTTAGG,-0.0981
21,GCTTCGGA,0.367
22,GATTATGA,-0.0204
